{
  "source": "paper PMC7819943",
  "about": "“Rice protein-binding microarrays: a tool to detect cis-acting elements near promoter regions in rice”",
  "note": "The other results are listed elsewhere or left out.",
  "data": [
    {"target": "T1, OsWOX13 (Oryza sativa, UniProt Q5QMM3 1-267)", "T1 sequence": "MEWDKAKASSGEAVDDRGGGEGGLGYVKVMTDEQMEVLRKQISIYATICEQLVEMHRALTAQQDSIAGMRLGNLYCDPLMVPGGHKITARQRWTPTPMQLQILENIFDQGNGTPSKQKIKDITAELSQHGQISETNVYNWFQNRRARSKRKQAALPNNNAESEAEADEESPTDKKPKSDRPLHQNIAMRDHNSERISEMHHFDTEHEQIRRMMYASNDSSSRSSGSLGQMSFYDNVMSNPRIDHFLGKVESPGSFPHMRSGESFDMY", "experiment": "protein-binding microarray (RPBM); PBS, 2% BSA, 51.3 ng/ul salmon testes DNA, 50 uM zinc acetate, 200 nM TF, 25 C, 1 h; high values mean tight binding", "settings": "protein: recombinant; tags: N-terminal polyhistidine and DsRed monomer fusion (pET32a); label: CyDye5-dUTP incorporated in the synthesized complementary strand; 3' TTTTT single-stranded linker to array surface; dsDNA, one strand shown", "method_in_brief": "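Using Ni–NTA, transcription factors fused N-terminally to polyhistidine and DsRed were purified after expression in E. coli BL21-CodonPlus. These were incubated at 200 nM with a blocked, double-stranded custom Agilent array for 1 h at 25 °C in a buffer containing 50 µM zinc acetate, and the array was washed. The binding signal is per-feature fluorescence intensity (arbitrary units) on an Axon 4000B scanner.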", "values": [
      {"sequence": "TATAATTACTTTTATCTTTCTAGCCTCTATACATTTACATCGGAGTCACCTAGTGCAG", "binding signal": "10200 fluorescence intensity (a.u.)"},
      {"sequence": "GCAATCTTTCATTATCATAATTGGTCGTAGCTTTAATTACCGGAGTCACCTAGTGCAG", "binding signal": "8430 fluorescence intensity (a.u.)"},
      {"sequence": "GCATAACATAAAACAAAATTTCCATTTGTTGGCAACAGCCCGGAGTCACCTAGTGCAG", "binding signal": "3430 fluorescence intensity (a.u.)"},
      {"sequence": "TTGGATTGATCTGTGGCGCTAAATCCGTTCGTCAGGTCTCCGGAGTCACCTAGTGCAG", "binding signal": "24900 fluorescence intensity (a.u.)"},
      {"sequence": "ATCGATAGTGAGACGTTCATGATTGACGAGGATATGTCGGCGGAGTCACCTAGTGCAG", "binding signal": "22200 fluorescence intensity (a.u.)"},
      {"sequence": "AGTTATACTTCTACATCATTAATTTGTTTGACCATACGACCGGAGTCACCTAGTGCAG", "binding signal": "3910 fluorescence intensity (a.u.)"},
      {"sequence": "TAAAATTGAAAATTTGATTGAAATTGGAACGATGTGATGGCGGAGTCACCTAGTGCAG", "binding signal": "64500 fluorescence intensity (a.u.)"},
      {"sequence": "AGGTCAATAAAATTGACTGAACTCTTGTCAAAGTTTAGTTCGGAGTCACCTAGTGCAG", "binding signal": "5260 fluorescence intensity (a.u.)"},
      {"sequence": "TCTAATCACTAGTCACTAGTCTGTCTGCTGAATTGTTCTCCGGAGTCACCTAGTGCAG", "binding signal": "4430 fluorescence intensity (a.u.)"},
      {"sequence": "TATCATGATTAAAGATGAGTCTTTATATTCCTTAGATAAGCGGAGTCACCTAGTGCAG", "binding signal": "8610 fluorescence intensity (a.u.)"},
      {"sequence": "GATTACTAGTACCAATTAGGACATGAATTCCTACACGACACGGAGTCACCTAGTGCAG", "binding signal": "3610 fluorescence intensity (a.u.)"},
      {"sequence": "ATTGGACTAACTGAATGATCAACCGCTTATGGTTTGATGACGGAGTCACCTAGTGCAG", "binding signal": "3520 fluorescence intensity (a.u.)"},
      {"sequence": "ATCAAATAAATTAAACTTTATTTGAATGTTATAATTGTAACGGAGTCACCTAGTGCAG", "binding signal": "21300 fluorescence intensity (a.u.)"},
      {"sequence": "ATATATTTCATCTAACAAAATTAGATGAAATATATCGTAGCGGAGTCACCTAGTGCAG", "binding signal": "4310 fluorescence intensity (a.u.)"},
      {"sequence": "TGCATGATTTATTTATTTATTGATCCATTAAATTTTACCCCGGAGTCACCTAGTGCAG", "binding signal": "37700 fluorescence intensity (a.u.)"},
      {"sequence": "TATCTAATTTAATCAATCCCATGGCTGTGATTGATCAGGACGGAGTCACCTAGTGCAG", "binding signal": "51900 fluorescence intensity (a.u.)"},
      {"sequence": "GATTTAGATTATGTTAATTAACGGATTAGGGTGTTAATTACGGAGTCACCTAGTGCAG", "binding signal": "38900 fluorescence intensity (a.u.)"},
      {"sequence": "GAGTGGTAAATAATTAATTATTACATATTTGTATAAATCGCGGAGTCACCTAGTGCAG", "binding signal": "22800 fluorescence intensity (a.u.)"},
      {"sequence": "GGGCTATAATTAATTGGGAAGATAATATTGATAGAGATATCGGAGTCACCTAGTGCAG", "binding signal": "47400 fluorescence intensity (a.u.)"},
      {"sequence": "TACCTGATACTAAATTGAAGGGGAATTGGCAAGTAGTGCACGGAGTCACCTAGTGCAG", "binding signal": "19900 fluorescence intensity (a.u.)"},
      {"sequence": "GATAAACACAATATACTCAATTTAAATTTTAGCTAACGGCCGGAGTCACCTAGTGCAG", "binding signal": "5050 fluorescence intensity (a.u.)"},
      {"sequence": "CATTAATTATATATACAGGGTTATATAAAACTTAATATCACGGAGTCACCTAGTGCAG", "binding signal": "32300 fluorescence intensity (a.u.)"},
      {"sequence": "CTCTGACCAATCAAATCCTCTCTATATACTCTAGGAGTACCGGAGTCACCTAGTGCAG", "binding signal": "4290 fluorescence intensity (a.u.)"},
      {"sequence": "ACAATGAGATTGTGTCACTGTCAGTCTGTCACTGATCACTCGGAGTCACCTAGTGCAG", "binding signal": "3360 fluorescence intensity (a.u.)"},
      {"sequence": "TCCACATGCTAATTTGTGGTGTCAGATACCTGAATACTCCCGGAGTCACCTAGTGCAG", "binding signal": "3970 fluorescence intensity (a.u.)"},
      {"sequence": "ATCAATCACTCGTTGGTAATTACTACAAGTCAGATGATATCGGAGTCACCTAGTGCAG", "binding signal": "32000 fluorescence intensity (a.u.)"},
      {"sequence": "CAAGTATCAATCACGAGCTGCACAACTTAAGTAGGAGAAACGGAGTCACCTAGTGCAG", "binding signal": "9000 fluorescence intensity (a.u.)"},
      {"sequence": "GGAAATACCTCAGATTGATAGTAGATTCTACAAGATTACACGGAGTCACCTAGTGCAG", "binding signal": "9690 fluorescence intensity (a.u.)"},
      {"sequence": "CTGATTTATGATAGGACATGACACACTACCTCTACATGTTCGGAGTCACCTAGTGCAG", "binding signal": "27600 fluorescence intensity (a.u.)"},
      {"sequence": "GTTAATAAATTTAGGTATATATATATATTTATTAACATCTCGGAGTCACCTAGTGCAG", "binding signal": "4570 fluorescence intensity (a.u.)"},
      {"sequence": "AGAGATGATATCAATTGTTAATACTTTCGGATGTCGGCAACGGAGTCACCTAGTGCAG", "binding signal": "3300 fluorescence intensity (a.u.)"},
      {"sequence": "TGCATTACATAATAATTATCTTATAGCAACATTATACTGGCGGAGTCACCTAGTGCAG", "binding signal": "6490 fluorescence intensity (a.u.)"},
      {"sequence": "CTTAATTAGCCAGATCTAATCCACTGTTCATCTGATGTAGCGGAGTCACCTAGTGCAG", "binding signal": "23800 fluorescence intensity (a.u.)"},
      {"sequence": "ACCAAATTAATTTTATTAAATTAATTATTAAATATATTTTCGGAGTCACCTAGTGCAG", "binding signal": "36500 fluorescence intensity (a.u.)"},
      {"sequence": "TAATAATTTAGGTTATAATAACCTTAAGCCGAATCCTTAACGGAGTCACCTAGTGCAG", "binding signal": "8830 fluorescence intensity (a.u.)"},
      {"sequence": "ACTAATGATCAATCAGTTATCACACAATGTCACCATGTGACGGAGTCACCTAGTGCAG", "binding signal": "33000 fluorescence intensity (a.u.)"},
      {"sequence": "CTATAAATTAATTTTATTTTCTAATAAATCGTTTTAGCTTCGGAGTCACCTAGTGCAG", "binding signal": "34700 fluorescence intensity (a.u.)"},
      {"sequence": "GCAATGATCATGTATAATTTTAGGGTTAGTTCACTGGTAGCGGAGTCACCTAGTGCAG", "binding signal": "7150 fluorescence intensity (a.u.)"},
      {"sequence": "CTTTAACAGCTAGCGATAATCGTTTTCGCTTGCGGTAGTGCGGAGTCACCTAGTGCAG", "binding signal": "4740 fluorescence intensity (a.u.)"},
      {"sequence": "CAGCCCTTAATTGAATTTGGCCCAGCTAGTTCCCGGGCCCCGGAGTCACCTAGTGCAG", "binding signal": "30600 fluorescence intensity (a.u.)"},
      {"sequence": "TTAAAATATTGCTCATTAGATTGGTCGAAACCGGTTATCGCGGAGTCACCTAGTGCAG", "binding signal": "3970 fluorescence intensity (a.u.)"},
      {"sequence": "GTGATTACATTGATAATAATTGATTGAATCAGTTTGTTCTCGGAGTCACCTAGTGCAG", "binding signal": "62600 fluorescence intensity (a.u.)"}
    ]}
  ]
}
